According to PubChem BioAssay AID588334 (Broad Institute, 2011):
About 2,300 (0.77%) of roughly 300,000 compounds were called active. Inconclusive results, whose numbers are uncertain, are shown with a selection of clear calls.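 Rule for the calls: active = mean activation of at least 80% with every replicate also reaching 80%; inconclusive = mean reaches 80% but some replicate falls short; inactive = the rest.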

assay: MITF-driven TRPM1 luciferase induction in melanoma cells – cell-based, SK-MEL-5, single point, primary screen (AID 588334); conditions: SK-MEL-5 TRPM1-promoter luciferase, 24 h; at 12.5 µM; active compounds read high; % of positive control, neutral wells = 0;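 note: 0% = neutral control wells and 100% = parthenolide positive control wells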

activation, inactive:
O=C1NC(c2ccccc2)=N/C1=C/c1ccco1 50.8%, CCSC1=N/C(=C\c2ccc(-c3ccccc3[N+](=O)[O-])o2)C(=O)S1 -5.28%, O=C1C(NS(=O)(=O)c2ccc(Br)cc2)=C(N2CCCCC2)C(=O)c2ccccc21 -13.9%, NNC(=O)c1ccc(CSc2cccc3cccnc23)cc1 4.64%, Cc1cc(=O)oc2cc(NC(=O)C(C)Oc3ccc(F)cc3)ccc12 (stereo not given) 22.4%, O=C1CC(c2cc(Br)ccc2F)c2cc3c(cc2N1)CCC3 (stereo not given) -21.1%, CC(=O)Oc1cccc(C(=O)Nc2ccccc2C(=O)N2CCCC2)c1 2.23%, CN(C)Cc1c(-c2ccc(Cl)cc2)nc2ccccn12 61.6%, COc1cccc(C(=O)Nc2c(F)cccc2F)c1 7.94%, COc1ccc(-c2cc3nc4n(c(=O)c3s2)CCC4)cc1 -53.4%, Cc1ccccc1N(CC(=O)Nc1ccccc1C(=O)NCc1ccco1)S(=O)(=O)c1ccccc1 4.4%, C/C(=N\O)c1ccc2[nH]ccc2c1 36.1%, Cc1cccc(Oc2coc3cc(OC(=O)c4cccs4)ccc3c2=O)c1 9.29%, COc1ccc(/C(N)=N/OC(=O)N2CCOCC2)cc1 -13.1%, Cc1ccc(NC(=O)CCc2c(C)nn(-c3ccc(N4CCOCC4)nn3)c2C)cc1F 59.8%, CCn1c(C)nnc1SCC(=O)Nc1nccs1 -3.58%, O=C1c2ccccc2C2=Nc3ccccc3SC(c3cccc(F)c3)C12 (stereo not given) 0.756%, O=C(NCc1nnc(SCc2ccc(C(F)(F)F)cc2)n1-c1ccccc1)C12CC3CC(CC(C3)C1)C2 1.5%, CCCC(=O)NC(c1ccc(Cl)cc1Cl)c1ccc2cccnc2c1O (stereo not given) -66.7%, CCOC(=O)C1CCN(C(=O)c2oc3ccc(S(=O)(=O)N4CC(C)CC(C)C4)cc3c2C)CC1 (stereo not given) -14%, COc1ccc(C)c2sc(N(CCN(C)C)C(=O)/C=C/c3cccs3)nc12 -88.3%, c1ccc(CCNc2nc3ccccc3n3nnnc23)cc1 14.7%, Cc1cccc(Oc2ccc(Cl)cc2N)c1 49.1%, C/C(=N/NS(=O)(=O)c1ccc(Br)cc1)c1c[nH]c2ccccc12 -1.49%, COc1cc(OC)c(C2=NOC(C(=O)N3CCc4ccccc4C3)C2)cc1Cl (stereo not given) 6.73%, O=c1oc2ccccc2n1CCn1c2ccccc2c2nc3ccccc3nc21 9.29%, COC(=O)C1=NN(C(=O)c2ccc(Cl)cc2)C(O)(c2ccccc2)C1 (stereo not given) -9.26%

activation, inconclusive:
CC1CCCCN1C(=O)CSc1nnc(-c2cccs2)o1 (stereo not given) 82.8%, N/C(=N\OC(=O)c1ccccc1F)c1ccc([N+](=O)[O-])cc1 88.4%, CCCCOc1ccc(C(=O)N=c2sccn2C)cc1OC 84.7%, COc1ccc(/C(C)=N/N2CCCCC2)c(O)c1 83.4%, Cc1c(C(=O)NC2CCOC2)oc2c(F)cccc12 (stereo not given) 84.5%, Cc1ccc2c(c1)COc1c3ccc(C(=O)N4CCCCC4)cc3nn1-2 81.3%, Cc1cc(Cl)nc(NC(=O)Nc2cccc(Cl)c2)n1 82.1%, Clc1ccc(-c2cc(-c3ccccc3)on2)cc1 85.3%, CCn1nc(C)c(/C=N/NC(=O)c2ccoc2C)c1C 82.1%, CCc1ccc2[nH]c3nc(C)cc(C)c3c(=O)c2c1 84.3%, Cc1ccc(SCCN2CCC(C)CCC2=O)cc1 (stereo not given) 87%, C/C(=N\Nc1nncc2ccccc12)c1ccc(OCC(=O)N(C)C)cc1 81.2%, Cc1nc2cc(NC(=O)C3COc4ccccc4O3)ccc2s1 (stereo not given) 87.8%, CCOC(=O)c1cc(C(=O)Nc2ccc(C)c(F)c2)nn1C 82.4%, CC(c1ccccc1)c1nnc(NC(=O)Nc2ccccc2F)s1 (stereo not given) 80.5%, Oc1ccc(-c2cnc3ccccc3n2)cc1 88.3%, COc1ccccc1C(=O)N=c1sc2c(C)ccc(OC)c2n1C 89.7%, O=C(CSc1nnc(-c2cccs2)o1)c1cccs1 80.8%, O=C(Nc1cccc(-c2ccc(N3CCOCC3)nn2)c1)c1ccccc1 81.8%, COc1ccc(/C=N/Nc2nc3ccccc3[nH]2)cc1OC 80.1%, CN1CCN(Cn2cc(/C=C/C(=O)c3ccccc3)c3ccccc32)CC1 86.7%, Cc1cccc(Nc2ncc3c(n2)CC(C)CC3=O)c1 (stereo not given) 83%, O=C(Nc1ccc(N2CCCCCC2)cc1)c1ccc[nH]1 80.5%, COc1ccc(NC(=O)COc2ccc(/C=N/O)cc2OC)cc1 80.3%, CCCC(=O)N1c2ccc(-c3csc(N)n3)cc2CC1C (stereo not given) 83.9%, CC(C)(C)c1ccc(SCCc2cccnc2)cc1 80.4%, O=C(NCCc1ccccc1)/C(=N\O)c1ccccc1 80.2%, COc1ccc(NC(=S)NC(=O)c2ccccc2Cl)cc1 83.7%, Cc1ccc(NC(=O)c2ccc(OC(=O)COc3cccc(Cl)c3)cc2)cc1 83.9%, CC1CCN(c2oc(-c3cccc4ccccc34)nc2C#N)CC1 81.9%, Cn1c(C(=O)NC2CCCCC2)cc2c(=O)n3ccccc3nc21 80.1%, CCc1ccc(NC(=O)c2cc(C)on2)cc1 80.2%, Cc1ccc(C2=N/C(=C\N3CCCCC3)C(=O)O2)cc1 89.3%, COC(=O)c1c(C)[nH]c(C(=O)/C=C/c2ccccc2F)c1C 80.5%, CN(C)c1ccc(C(=O)/C=C/c2ccccc2)cc1 84.2%, O=C(Nc1ccc(F)cc1)Nc1nnc(-c2ccco2)s1 80.4%, O=C(NCc1ccccn1)Nc1ccc(Br)cc1Cl 82.7%, COc1ccccc1OCC(=O)Nc1ccc2c(c1)OCCO2 81.8%, c1ccc(NC2=Nc3ccccc3CC2)cc1 85.2%, Cc1onc(-c2ccccc2)c1C(=O)Nc1nc(-c2cc(F)ccc2F)cs1 161%, COc1ccc(-n2nc(C(=O)NCC(=O)N3CCN(c4ccccc4OC)CC3)c3ccccc3c2=O)c(OC)c1 86.3%, Clc1cccc(Nc2nc(-c3ccncc3)cs2)c1 82.4%, O=C(Nc1ccc(N2CCOCC2)c(Cl)c1)c1ccccc1F 80.5%, Cc1cccc(OCc2nc(-c3nonc3N)no2)c1C 81.8%, O=C(NCCSc1ccccn1)c1ccc(Cl)cc1Cl 82%, COc1cccc(-c2cc(C(=O)Nc3ccccc3SC)no2)c1 80.6%, COc1ccc(C)c2sc(=NC(=O)c3ccc(C(C)=O)cc3)n(C)c12 83.8%, CC(=O)N/N=C(/C)c1ccc(NC(=O)c2csc(C)c2C)cc1 91.7%, CC(C)(C)c1csc(NC2=NS(=O)(=O)c3ccccc32)n1 81.4%, CCN(CC)c1ccc(C(=O)NNC(=O)c2cccn2C)cc1 88.5%, O=C(NC1CCCCC1)c1cc(-c2cccs2)on1 95.3%, C=CCOc1ccc(/C=N/Nc2ccccn2)cc1OC 80.5%

activation, active:
CC(C)C(=O)Nc1ccc(-c2csc(-c3ccccc3)n2)cc1 139%, Clc1ccc(-n2nnc(-c3cccnc3Cl)n2)cc1Cl 94.6%, CCCc1ccc(-c2cc(C(=O)NCCc3ccc(S(N)(=O)=O)cc3)c3ccccc3n2)cc1 106%, O=C(CCCC(=O)c1ccc(F)cc1)c1ccc(F)cc1 131%, Nc1nc(CSc2ccccn2)nc(Nc2ccccc2)n1 152%, O=C(NC1CCN(Cc2ccccc2)CC1)c1ccc(Cn2c(=S)[nH]c3ccc(N4CCOCC4)cc3c2=O)cc1 81.1%, CCCc1cc(C(=O)Nc2nccs2)cs1 95%, Cc1nn(-c2ccccc2)c(C)c1C(=O)OCC(=O)Nc1ccccc1 85.9%, COc1ccc(/C=N/Nc2ccccn2)cc1O 84.7%, Cc1sc2nc3ccc(N4CCCCC4)nn3c(=O)c2c1C 121%, COc1ccc(/C=N/Nc2nccnc2Cl)c(OC)c1 87.8%, O=C(CCC1CCCCC1)Nc1ccccc1O 94.9%, O=C(NC(=S)NC1CCCCC1)c1ccc(Cl)cc1 138%, Cc1c(OCc2ccc([N+](=O)[O-])cc2)ccc2c3c(c(=O)oc12)CCC3 112%, c1ccc(SCc2nc(-c3ccncc3)no2)cc1 91.1%, O=C(Nc1nccs1)c1ccc(-c2ccc(F)c(Cl)c2)o1 113%, O=C(NCc1ccc2c(c1)OCO2)Nc1cccc(Cl)c1 80.1%, O=C(Nc1ccccc1O)c1cc2cc(Br)ccc2oc1=O 101%, Cc1ccc(OCCOc2ccc(Br)cc2)c([N+](=O)[O-])n1 123%, COc1ccc(NN=Nc2ccc([N+](=O)[O-])cc2)cc1 98.9%, CCCCOc1ccc(-c2ncc(Cl)cn2)cc1 105%
